Data from the supplement of paper PMC11417369.
Some of the results follow.

Test system: PF3D7_0420300 AP2 domain 1 (GST-tagged)
Assay: gcPBM binding intensity (ln(normalized median fluorescence intensity)); higher = stronger DNA binding
Method in brief: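 In this array assay, P. falciparum DNA-binding domains with a GST tag, expressed in E. coli, were applied for 1 h to primer-extended double-stranded 36-bp intergenic genomic probes and negative controls on an Agilent 4 × 180k array. Bound protein was visualised with Alexa488 anti-GST antibody at 488 nm. Binding intensity is the highest Masliner-normalised natural-log median intensity across replicate spots of either probe orientation.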

Sequence	gcPBM binding intensity (ln)
ATCTTGAAGATTATTTGTACACAAAAGTTAAAATAT [XGTACX_site242]	8.99
ATATAAATATATTTTACACACAATGGAGAAAAAAAT [CACACA_site6450]	9.74
TATATAATTATTTATTGTACACTCAAATCGATAAGG [XGTACX_site3216]	9.02
TATTTATAAATATAAACACACAACATTCTATGCATA [CACACA_site3243]	9.43
AATGTATTATGTCTTCGTACACATAAATAAATAAAT [XGTACX_site4004]	9.12
TTGTTTATTTGTAAAGCTAACAAGAAATGTGAATAT [CACACA_negctrl_site931]	9.14
AACGAACACTATTACACACATACATACATATGTATG [CACACA_site1859]	9.69
TATACATAAAAATGATGTACATATAATATATATATA [XGTACX_site3863]	9.18
TTATTATTATAAAATTGTACTTGGTATATTAACATA [XGTACX_site5829]	8.97
ACCTTATTTAGTTATAGTACACAAAGTATTAAACAT [XGTACX_site8418]	9.37
TATATATATTTTTGTGTGCACTATAATATGAAAATA	9.22
GCGAATAATATGGACATACACACATATACATACATA [CACACA_site2115]	9.67
TTTTTTTTTTTCTTCACACACAGTACTACTATTTAT [CACACA_site2409]	9.68
TCATTTATTGAGGAATGTACACGTAAAATTTAATAA [XGTACX_site4086]	9.19
TTTTTTTTTTTTTTATGTACATATATATATTTTATT [XGTACX_site6915]	9.38
ATTTTTTTTTTTTTTTTCTTTTTTCTTCTTTTTTTT [CACACA_negctrl_site1223]	9.47
ATATATATTATAAAATGTACAAATGTTATATAAAAT [XGTACX_site4750]	9.36
AATTATAAATTGGACACACACATAAAAAATATGTAC [CACACA_site221]	9.82
TAAAGGAAATAAAAAACATGCAAATATGAAATATAT [TGCATGCA_site745]	9.64
ATACATAATAACTCCTGTACTTAAAAATGTATATAT [XGTACX_site1071]	9.26
TAAAAAAAAACATGTGCACACGTTTTATCTACATAA [CACACA_site2336]	9.59
TTACATATTATACGAAGTACGTACAAATACTTATAT [XGTACX_site8598]	9.18

Sequence	gcPBM binding intensity (ln)
TTTTTTTTTTTTTTTTTTAAACACCTCAAAAAAAAA [CACACA_negctrl_site807]	8.41
TTGCATTGTCCATGCGCACACACTACTAGAATAATA [CACACA_site3678]	9.4
AAAATATATATAACTTGTACATATACATACGTATAT [XGTACX_site4570]	9.2
TGTATATATCAATGTACACACATGCGTATGTTCGTT [CACACA_site7654]	9.54
TATAAAAAAAATTGCACACATATTATACAGGACGAC [CACACA_site701]	10
TGGATGTTAATATAGTGTACATTTATAAGTCAGTAT [XGTACX_site2949]	9.45
GTGGAAAAAAATAATTGTACACAATAATAAATATAT [XGTACX_site2414]	9.42
GAAAAAAAATCCAAGATGCACTATTATTACAAAAAT [GTGCAC_site9516]	9.28
ATGTAATATATGCGGAAATATATTCACAAGACGTCA [CACACA_negctrl_site373]	9.3
GTCAAAAGTTTTTAAGGTACACTTATTTTATTATAA [XGTACX_site7004]	9.22
CACTAAACATATACACGTACATGCAACGGATTTTTT [XGTACX_site461]	9.34
ACCTTTATTGTATGAACACACATAAGCTGATACATC [CACACA_site4028]	9.48
AATATATGGTTCCTTGATATTAAATTCAATTTAATG [CACACA_negctrl_site71]	9.12
TGTGTATATGTGCAAAGTACAAAAAAGAAATTATTT [XGTACX_site7569]	9.32
TAAATCTATATCATCACACACACATACATAAATATA [CACACA_site6228]	9.88
TAGTATTGTAAAAAAAAAAAAGAAAAAAAAAAAAAA [CACACA_negctrl_site977]	8.75
TATAATGATGATGATAGTACGTATGAGTTCAAAAAA [XGTACX_site3656]	9.33
TTAAAATCTTGAAAAGTGCATTATCATTTTGTAACG [GTGCAC_site9447]	8.92
TATATATTTATATATGCATGTACATTTTTATTTATT [TGCATGCA_site1048]	9.42
CTGAATGTATATATTTGTACATATATATATATATAT [XGTACX_site5557]	9.16
AAAAAAAAAAAACACGCATGTACATAAAAATAATCA [TGCATGCA_site142]	9.52
GGGTATAATAAAAGCACACACAAAGATATAAATATA [CACACA_site3308]	9.79

Sequence	gcPBM binding intensity (ln)
TTTTTTTTTTTTAATTAACACACATAAATATATATA [CACACA_site9077]	9.11
TATAGATACCTATACACACACACACGGACATATATA [CACACA_site7585]	10.2
ATATAAAACAACGGGTGTACAAAAAAATAAATAATA [XGTACX_site4094]	9.56
AAAGAAATGAAATATACACACATACCTATATACATA [CACACA_site7817]	9.77
TTTTTCTTCTGCATTATGCACACTATAATTCGTTAA [CACACA_site2837]	9.3
TTTTTAATATATAAAGATAATAATAAATAAAATTCA [CACACA_negctrl_site657]	8.9
ATCATATGTATGCATACACACAAAAAATTATATATA [CACACA_site398]	9.43
TATAATGATATAACAACACACATGTATGTATTATTA [CACACA_site230]	9.35
TTATTTATGATATATACACACTAACATTATTTATCC [CACACA_site6720]	9.46
TCTTATATATGCTTAAATATATTATATTTATTTGAA [CACACA_negctrl_site1757]	8.99
AACCATAAATAATTATGTACTAAAAAAAATATATAT [XGTACX_site3415]	9.31
TGGAGGATAGTTCACAGTACCCAGAAACTCTACGGA [XGTACX_site2560]	8.97
ATAATATATTTATGTTGTACAAGGAAAATTTTGAAA [XGTACX_site3472]	9.26
GAAATGGAAAAATATACATGCGCATATAAATTAATA [TGCATGCA_site834]	9.19
ATATTTTTTACTATTACACACAAGGGATTATTATTT [CACACA_site3915]	9.64
TCAAATAATTTGTTGACACACACACCCACATACATA [CACACA_site8717]	9.85
ACCTTATAAAAAAAAAGTACATATATAAATAATAAA [XGTACX_site4338]	9.21
AAACAATAAAAGATTACACACATATATAGCATATAT [CACACA_site1698]	9.86
TATACATAATATATATGTACATATATTCTTTATTTT [XGTACX_site4565]	9.23
TTTTCGATATGCTTTTTTTTTCTACTGTCTTTTTAA [TGCATGCA_negctrl_site54]	9.38
ATATCAAATTCTGAAACACACAAAATTACACCTCTA [CACACA_site169]	9.45
CAAAAATATTATTATAGTACATAAATAATATATTTT [XGTACX_site6902]	9.07

Sequence	gcPBM binding intensity (ln)
TAAAAATAGGAGTGTGTGCACATAAATTATATACTA [GTGCAC_site9405]	9.66
CACATACATAAATACACACACAAAATAATAAAATAA [CACACA_site5304]	10
TTACTTAATAGACACACACACAAAAAAAAAAAAAAA [CACACA_site6572]	9.75
TTTTCATTTTTCTTTACACACATATATATATATATA [CACACA_site2236]	9.72
GAAAGACAAATTGTGACACACACAAAAAAAAAAAAA [CACACA_site9241]	9.49
AAAAAAAAAAAAAAAAAAAAACACCCAAAAAAATAT [XGTACX_negctrl_site210]	9.62
TATATATATATTTTTTGTACATATTATATAATATAC [XGTACX_site5187]	9.35
GTAAACAATTATGAACGTACATAAAATAAATGAACA [XGTACX_site7159]	9.42
TGTCTTTTTAAGTTTTGTACATAAATATATTTCAAA [XGTACX_site427]	9.01
AGTATACACAGACACACACACACATATATATATATA [CACACA_site8510]	10.2
TTTTTATGGACTATGGTGCATTATATATAAATGAAA [GTGCAC_site9557]	8.99
TAATATTATATAAATTGTACTATTTTTTCCTTATTC [XGTACX_site5314]	9.16
TATTTATGCACGCGTGCACACACATATGAAAAAAGG [CACACA_site9090]	9.7
AATTGCTAATGGTACGAACACACATATAAAGATGCA [CACACA_site8634]	9.43
CTTTCATATGTTTTAACACACACGCATATATTATAG [CACACA_site7033]	9.82
ATATAAGTTATTTTATACAAAAAAAAAAAAAAAAAT [CACACA_negctrl_site1190]	9.18
AAGAATGTTAACGTTGCACACAAAAAAAAAGTATAC [CACACA_site8763]	9.55
AAAAAAAAAAAAAATACACACACATATATATATATA [CACACA_site8698]	9.55
ATATATATAATAAATACACACATTTATATAGATAAA [CACACA_site3254]	9.56
ATTCAATATTTATACACACACACTTTTAATAATTAA [CACACA_site7725]	9.83
TCATTCAGTTTTATCACACACAATCAAACATATATA [CACACA_site2742]	9.5
AAACATTTATCAATGAATCTTTTAATAAGTGTAAAG [XGTACX_negctrl_site80]	8.88
